Sequences and labels used below:
B1: TPR 5TU (parent)
chain: GGAUCUUCUCGAUCUAACAAAAAAGACAAAUCUGCCACAAAGCUUGAGAGCAUCUUCGGAUGCAGAGGCGGCAGCCUUCGGUGGCGCGAUAGCGCCAACGUUCUCAACUAUGACACGCAAAACGCGUGCUCCGUUGAAUGGAGUUUAUCAUG

Variants at the floor of the assay are shown more often than the library holds them.

In this data set the parent is B1. Description: polymerase ribozyme fitness, log enrichment relative to wild type (log ratio); higher = more active; in vitro selection for triplet polymerase activity. The essentials: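 To select mutant libraries of each subunit of a heterodimeric triplet polymerase ribozyme, built by PCR and transcribed, each was annealed with a biotinylated primer, partner subunit and triplets, then incubated frozen at −7 °C. Extended constructs were gel-excised, captured on streptavidin beads and amplified by RT-PCR, in one round carried out in triplicate. Illumina sequencing of input and output libraries kept genotypes with ≥10 input reads and ≥1 read per output. Fitness is the base-2 logarithm of genotype enrichment relative to wild-type enrichment, from inverse-variance-weighted replicate averages.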
As for GGAUCUUCUCGAUCUAACAAAAAAGACAAAUCUGCCACAACGCUUGAGAGCAUCUUCGGAUGCAGCGGCGGCAGCCUUCGGUGGCGCGAUAGCGCCAACGUUCUCUACUAUGACACACGAAACGCGUGCUCCGUUGAAUGGAGUUUAUCAUG [A41C A66C A106U G117A A119G], the “polymerase ribozyme fitness (log ratio)” value was at most -4.2. The value for GGAUCUUCUCGAUCUAACAAAAAAGACAAAUCUGCCACAUAGCUUGAGAGCAUCUACGGAUGCAGAGGCGGCAGCCUUCGGUGGCGAGAUAGGGCCAACGUUCUCAACUAUGGCAGGCAAAACGCGUGCUCCGUUUAAUGGAGUUCAUCAUG [A40U U56A C87A C93G A113G C116G G136U U146C] was at most -4.2; that for GGAUCUUCUCGAUCUAACAAAAAAGACAAAUCUGCCACAUAGCUUGAGAGCAUCAUCGGAUGCAGAGGCGGCAGCCUUCGGUGGCGCGAUAGCGCCAACGCUCUCAACUAUGACACGCACAACGCGUGCUCCGUUGAAUGGAGUUUAUCAUG [A40U U55A U101C A120C] was -0.406.

Take GGAUCUUCUCGAUCUAACAAAAAAGACAAAUCUGCCACAUAGCUUGAGAACAUCUUCGGAUGCAGAGGCGGCAGCCUUCGGUGGCGCGAUAGCGCUAACGUUCUCAGCUAUGACACGCAAAACGCGUGCUCCGUUGAAUGGAGUUUAUCAUG [A40U G50A C96U A107G]: the “polymerase ribozyme fitness (log ratio)” value was at most -4.2. With GGAUCUUCUCGAUCUAACAAAAAAGACAAAUCUGCCACAACGCUUGUGAGCAUCUUCGUAAGCAGAGGCCGCAGCCUUCGGUGUCGCGAUAGCGCCAACGUUCUCAACUAUGACACGCAAAACGAGUGCUCCGUUGAAUGGAGUUUAUCAUG [A41C A47U G59U U61A G70C G84U C125A], the “polymerase ribozyme fitness (log ratio)” value was at most -4.2. For the variant GGAUCUUCUCGAUCUAACAAAAAAGACAAAUCUGCCACAACGCUUGAGCUAAUCUUCGGAUGCAGAGGCGGCAGCCUUCGGUGGCGCGAUACCGCCAACGUUCUCGACUAUGACACGCAAAACGCGUGCUCCGUUGAAUGGAGUUUAUCAUG [A41C A49C G50U C51A G92C A106G], the “polymerase ribozyme fitness (log ratio)” value is at most -4.2. The value for GGAUCUUCUCGAUCUAACAAAAAAGACAAAUCUGCCACAUAGCUUGAGACCAUCUUCGGAUGCAGACGCGGCAGCCUUCGGUGGCGCGAUAGCGCCAACGUUAUCAACUAUGACACGCAAAACGCGUGGUCCGUUGAAUGGAGGUUAUCAUG [A40U G50C G67C C103A C129G U144G] was at most -4.2; that for GGAUCUUCUCGAUCUAACAAAAAAGACAAAUCUGCCACAUAGCUCGAGAGCAUCUUGGGAUGCAGAGGCGGCAGCCUUCGCUGGCGCGAUAGCGCCAACCUUCUCAACUAUGACAAGCAAAACGCGUGCUCCGUUGAAUGGAGUUUAUCAUG [A40U U45C C57G G81C G100C C116A] was at most -4.2; that for GGAUCUUCUCGAUCUAACAAAAAAGACAAAUCUGCCACAUAGCUUGAGAGCAUCUUCGGAUGCAGAGGCGGCAGCCUUCGGUGGCGCGAUAGCGCCAACGUUCUCAACUAUGAUACGCAAAACGCGUGCUCCGUUGAAUGGAGUUUAUCAUG [A40U C114U] was -2.19. For GGAUCUUCUCGAUCUAACAAAAAAGACAAAUCUGCCACAUAGCUUGAGAGCAUCUUCGGAUACAGAGGCGGCAGCCUUCGGUGGCGCGAUAGCGCCAACGUUCUCAACUAUGACACGCAAAACGCGUGCUGCGUUAAAUGGAGUUUAUCAUG [A40U G62A C131G G136A] the value was -3.43; for GGAUCUUCUCGAUCUAACAAAAAAGACAAAUCUGCCACAUAGCUUGAGAGCAUCUACGGAUGCAGAGGCGGCAUCCUUCGGUGGCGCGAUAGCGCCAACGUUCUCAACUAUGACACGGAAAACGCGUGCUCCGUUGAAUGGAGUUUAUCAUG [A40U U56A G74U C118G], at most -4.2; for GGAUCUUCUCGAUCUAACAAAAAAGACAAAUCUGCCACAUAUCUUGAGAGCAUCUUCGGAUGCAGAGGUGGCAGCCUUCGGUGGCGCGGUUGCGCCAACGUUCUCCACUAUGACACGCAAAACGCGUGCUCCGUUGAAUGGAGUUUAUUAUG [A40U G42U C69U A89G A91U A106C C149U], at most -4.2.

As to GGAUCUUCUCGAUCUAACAAAAAAGACAAAUCUGCCACAUAGCUUGAGAGCAUCUUCGGAGGCAGAGGUGGCAGCCUUCGGUGGCGCGAUAGCGCCAACGUUCUCAACUAUGACACGCAAAACGCGUGCUCCGUUGAAUGGAGUUUAUCAUG [A40U U61G C69U], the “polymerase ribozyme fitness (log ratio)” value was -1.67.

As for GGAUCUUCUCGAUCUAACAAAAAAGACAAAUCUGCCACAACGCUUGAGCGCAUCUUCGGAUGCAGAGGCGGCAGCCUUCGGUGGCGCGAUAGCGCCAACGUUCUCAACUAUGACACGCAAAACGCGUGCUCCGUUGAAUGGAGUUUAUCAUG [A41C A49C], the “polymerase ribozyme fitness (log ratio)” value is -4.01. For GGAUCUUCUCGAUCUAACAAAAAAGACAAAUCUGCCACAUAGCUUGAGAGCAUCUUCGGAAGCAGAGGCGGCAGCCUUCGGUGGUGCGAUAGCGCCAAUGUUCUCAAUUAUGAUACGUAAAACGCGUGCUCCGUUGAAUGGAGUUUAUCAUG [A40U U61A C85U C99U C108U C114U C118U] the value was at most -4.2. For GGAUCUUCUCGAUCUAACAAAAAAGACAAAUCUGCCACAUAGCUUCAGAGCAUCUUCGGAUGCAGAGACGGCAGCCUUCGGUGGCGAGAUAGCGCCAACGUUCUCAACUAUGACACGCAAAACGCGUGCUCCGUUGAAUGGAGUUUAUCAUG [A40U G46C G68A C87A] the value was at most -4.2; for GGAUCUUCUCGAUCUAACAAAAAAGACAAAUCUGCCACAACGCUUGAGAGCAUCUUCGGAUGCAGAGGCGGCAGCCUUCGGUGGCGCGAUAGCGCCAACGUUCUCAACUAUGACACGCGAAACGCGUGCUCCGUUGAAUCGAGUUUAUCAUG [A41C A119G G140C], at most -4.2; for GGAUCUUCUCGAUCUAACAAAAAAGACAAAUCUGCCACAACGCUUGAGAGCCUCUUCGGAUGCAGAGGCGGCAGCCUUCGGUGGCGCGAUAGCGCCAACGUUCUCAACUAUGAAAGGCAAAACGCGUGCUCCGUUGAAUGGAGUUUAUCAUG [A41C A52C C114A C116G], at most -4.2. For GGAUCUUCUCGAUCUAACAAAAAAGACAAAUCUGCCACAACGCUUGAGAGCGUCUUCGGAUCCAGAGGCGGCAGCCUUCGGUGGCGCGAUAGCGGCAACGUUCUCAACUAUGACACGCAAAACGCGUGCUACGUUGAAUGGUGUUUAUAAUG [A41C A52G G62C C95G C131A A142U C149A] the value was at most -4.2.

For the origin of these results see the RNAGym collection of RNA variant scans (doi:10.1073/pnas.2313332121).
